In this experiment the test system is NCI-H322M lung. Briefly: inhibition of tumour cell growth, NCI panel, 48 h.

The source of these data is PubChem BioAssay (NCI).

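1) Cells in 96-well plates. 2) Compound, 48 h, 5 concentrations. 3) Linear interpolation between surrounding doses. 4) Unreached endpoint = highest concentration. The concentration for 50% growth inhibition is given as GI50. TGI marks complete inhibition of growth.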 Bounds are passed on as bounds.

With `O=C(c1ccc(Cl)cc1)C1[C@H](c2ccccc2Cl)[C@@H](c2ccccc2)NC12C(=O)Nc1ccc(Br)cc12` (stereo partly specified), the GI50 was 19.6 µM and the TGI was 53.1 µM.

Consider `COc1cccc(/C=C/C(=O)c2ccc(OC)c(S(N)(=O)=O)c2)c1`, for which the GI50 is 3.08 µM and the TGI turned out to be 12.4 µM.

Take `O=C1NC(=S)/C(=C/c2cn(-c3ccccc3)nc2-c2ccccc2)S1`: the GI50 is 12.8 µM and the TGI is greater than 100 µM.
